Results on 24 compounds are retold here after publication PMC4336329 (PLoS ONE, 2015).

The structures appear in SMILES notation. About 14,000 (4.5%) of roughly 310,000 compounds showed an effect of 50% or more. The effect is printed as a negative number. The list shows a part of the results.
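Note: peak tail current of the secondary pulse compared with the same well before compound.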

The assay deals with human ether-à-go-go-related gene (hERG) potassium channel (human, UniProt Q12809). Kind of assay: primary screen, population patch clamp on CHO cells stably expressing hERG.
Sequence of human ether-à-go-go-related gene (hERG) potassium channel (Q12809 whole entry, looked up): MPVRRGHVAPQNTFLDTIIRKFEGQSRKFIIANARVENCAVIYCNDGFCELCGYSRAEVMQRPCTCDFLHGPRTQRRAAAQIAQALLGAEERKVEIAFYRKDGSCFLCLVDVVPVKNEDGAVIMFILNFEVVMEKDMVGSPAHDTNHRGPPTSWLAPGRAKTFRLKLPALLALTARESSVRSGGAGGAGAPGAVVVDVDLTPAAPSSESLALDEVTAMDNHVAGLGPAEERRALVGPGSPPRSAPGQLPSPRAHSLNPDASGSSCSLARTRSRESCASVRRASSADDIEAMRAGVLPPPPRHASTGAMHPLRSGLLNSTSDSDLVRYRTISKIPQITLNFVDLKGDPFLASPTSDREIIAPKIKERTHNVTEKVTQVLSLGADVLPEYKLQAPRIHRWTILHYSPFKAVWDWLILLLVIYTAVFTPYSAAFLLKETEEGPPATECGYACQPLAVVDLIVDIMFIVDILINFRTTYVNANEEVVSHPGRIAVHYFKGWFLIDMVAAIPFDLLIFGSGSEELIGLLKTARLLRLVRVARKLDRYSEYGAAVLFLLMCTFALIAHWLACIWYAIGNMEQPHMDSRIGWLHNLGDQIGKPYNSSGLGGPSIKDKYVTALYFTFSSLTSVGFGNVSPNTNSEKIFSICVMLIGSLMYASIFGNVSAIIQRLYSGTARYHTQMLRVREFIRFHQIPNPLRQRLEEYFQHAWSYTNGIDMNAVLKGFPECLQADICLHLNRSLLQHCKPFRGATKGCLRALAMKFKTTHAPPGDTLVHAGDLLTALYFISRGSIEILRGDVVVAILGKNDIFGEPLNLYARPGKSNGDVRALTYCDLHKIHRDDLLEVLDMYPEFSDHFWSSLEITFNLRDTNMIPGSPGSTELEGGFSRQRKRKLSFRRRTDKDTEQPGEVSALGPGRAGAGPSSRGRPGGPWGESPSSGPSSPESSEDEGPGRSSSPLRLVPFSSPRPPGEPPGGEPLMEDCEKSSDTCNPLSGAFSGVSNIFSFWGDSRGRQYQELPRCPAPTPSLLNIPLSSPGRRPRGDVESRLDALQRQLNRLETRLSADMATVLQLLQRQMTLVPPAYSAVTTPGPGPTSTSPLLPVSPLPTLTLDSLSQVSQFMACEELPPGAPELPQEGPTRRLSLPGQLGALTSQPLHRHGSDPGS
With `COc1cccc(COC(=O)CCNC(=O)c2ccc(Cl)cc2)c1OC`, the “hERG current change (%, negative = inhibition) at 10uM” value was -1.56%.
For `COc1ccc(C(=O)N/C(=C\c2ccco2)C(=O)NC2CCS(=O)(=O)C2)cc1` (stereo not drawn), the “hERG current change (%, negative = inhibition) at 10uM” value came to 18.4%.
For `O=C(Nc1cccc(-c2csc(Nc3ccccc3)n2)c1)c1ccccc1` the value was 2.4%; for `Cc1ccc(-c2cc3ccccc3nc2N2CCCC2)cc1`, 9.8%; for `COc1ccccc1NC(=O)COC(=O)c1ccccn1`, 12%.
Turning to `CN1CCN(S(=O)(=O)c2ccc(N3CCN(S(=O)(=O)c4cccs4)CC3)nc2)CC1`, the “hERG current change (%, negative = inhibition) at 10uM” value turned out to be 20.8%.
Next, `COC(=O)C1=C(c2ccc(F)cc2F)C[C@@H]2CC[C@H]1N2C(=O)NC1Cc2ccccc2C1`: -16.9%.
Turning to `CC(C)N=C1NN=C(c2cccs2)C(CC(=O)O)S1` (stereo not drawn), the “hERG current change (%, negative = inhibition) at 10uM” value was -0.535%.
As to `O=C1CCCN1CCC1CCN(C2CC(=O)N(c3ccc(Cl)cc3)C2=O)CC1` (stereo not drawn), the “hERG current change (%, negative = inhibition) at 10uM” value is -14.4%.
Regarding `Cc1ccc(CSCC(=O)N(C)CC(=O)Nc2ccc(Br)cc2C)cc1`, the “hERG current change (%, negative = inhibition) at 10uM” value is given as -22.9%.
For `Nc1nc(SCc2c(F)cccc2Cl)[nH]c(=O)c1-c1ccccc1`, the “hERG current change (%, negative = inhibition) at 10uM” value was determined as 4.43%.
`COC(=O)CSc1nc2cc3c(cc2cc1C#N)OCO3`: the “hERG current change (%, negative = inhibition) at 10uM” value is given as 29.5%.
Turning to `O=C(NCCCN1CCCC1=O)c1cc(S(=O)(=O)N2CCOCC2)ccc1Cl`, the “hERG current change (%, negative = inhibition) at 10uM” value came out at 13.9%.
Regarding `Cc1cc(OCC(=O)NC2CCN(Cc3ccccc3)CC2)c2c(C)c(C)c(=O)oc2c1`, the “hERG current change (%, negative = inhibition) at 10uM” value was -22.4%.
With `CCOCCCN(C(=O)c1snc(C(N)=O)c1N)C(C(=O)NC(C)(C)C)c1ccc(Cl)cc1` (stereo not drawn), the “hERG current change (%, negative = inhibition) at 10uM” value is on record as -33.1%.
Take `CC(C)c1ccc(/C=N/N2CCCCC2)cc1.O=C(O)C(=O)O`: the “hERG current change (%, negative = inhibition) at 10uM” value is recorded as -84.3%.
As for `Cn1cc(/C=C/C(=O)N2CCCC(C(=O)c3cccc4ccccc34)C2)cn1` (stereo not drawn), the “hERG current change (%, negative = inhibition) at 10uM” value is given as -8.09%.
As for `O=C1c2ccccc2NC(c2ccccc2F)N1NS(=O)(=O)c1ccccc1` (stereo not drawn), the “hERG current change (%, negative = inhibition) at 10uM” value was found to be 19.2%.
As to `O=C(NNC(=O)C(O)(c1ccccc1)c1ccccc1)C1CC1`, the “hERG current change (%, negative = inhibition) at 10uM” value came to 20.3%.
For `Cl.Nc1ccc(-c2nc3c(ccc4ccccc43)[nH]2)cc1` the value was 12.7%.
Take `Cc1nc(-c2ccccc2)sc1-c1ccn[nH]1`: the “hERG current change (%, negative = inhibition) at 10uM” value worked out at 25%.
On to `Cc1ccc(-n2nc3c(=O)n(CC(=O)NCc4ccccc4Cl)nc(C)c3c2C)cc1`, for which the “hERG current change (%, negative = inhibition) at 10uM” value was 13.8%.
Consider `COc1ccc(N2CCN(C(=O)C3CCCN(S(=O)(=O)c4ccc(C)cc4)C3)CC2)cc1` (stereo not drawn), for which the “hERG current change (%, negative = inhibition) at 10uM” value is listed as -53.4%.
On to `COC(=O)/C=C1\SC(=NC(=O)c2ccc(OC)cc2)NC1=O`, for which the “hERG current change (%, negative = inhibition) at 10uM” value is -1.49%.
